Drawing on paper PMC7097893, this text covers Kd for one substance.

For this assay, the target named is p10-flu-BP (synthetic construct).

Values joined by “and” are separate entries in the source; they are usually repeats but may differ in a detail not shown here. Identical values can stand only once.

With galectin-3 (no sequence given), the Kd was 1160 nM and 4740 nM.
